Data as given in PMC11933320.
Changes are numbered by the printed parent chain. Results are given in words; binding and its absence hold for the method and conditions named. In cells and extracts the contact can be indirect. Some binding calls cover weakened binding; strength is not graded here. For part of these data: Where a sequence is shown, tags or fusion partners need not be part of it. Values belong to the molecule of their own block, whether it stands above or below them.

Chains of the proteins cited; added tags and fusions are not shown.
UniProt Q86WV6: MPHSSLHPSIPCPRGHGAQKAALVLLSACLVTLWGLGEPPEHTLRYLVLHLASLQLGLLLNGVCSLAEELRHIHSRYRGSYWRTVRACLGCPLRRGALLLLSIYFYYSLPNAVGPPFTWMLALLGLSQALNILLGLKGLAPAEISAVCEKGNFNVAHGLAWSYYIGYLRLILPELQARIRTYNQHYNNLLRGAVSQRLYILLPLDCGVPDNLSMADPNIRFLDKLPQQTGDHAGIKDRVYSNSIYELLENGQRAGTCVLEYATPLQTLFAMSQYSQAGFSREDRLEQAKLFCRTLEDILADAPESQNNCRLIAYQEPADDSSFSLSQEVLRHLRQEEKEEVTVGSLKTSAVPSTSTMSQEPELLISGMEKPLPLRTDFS
UniProt Q7Z434: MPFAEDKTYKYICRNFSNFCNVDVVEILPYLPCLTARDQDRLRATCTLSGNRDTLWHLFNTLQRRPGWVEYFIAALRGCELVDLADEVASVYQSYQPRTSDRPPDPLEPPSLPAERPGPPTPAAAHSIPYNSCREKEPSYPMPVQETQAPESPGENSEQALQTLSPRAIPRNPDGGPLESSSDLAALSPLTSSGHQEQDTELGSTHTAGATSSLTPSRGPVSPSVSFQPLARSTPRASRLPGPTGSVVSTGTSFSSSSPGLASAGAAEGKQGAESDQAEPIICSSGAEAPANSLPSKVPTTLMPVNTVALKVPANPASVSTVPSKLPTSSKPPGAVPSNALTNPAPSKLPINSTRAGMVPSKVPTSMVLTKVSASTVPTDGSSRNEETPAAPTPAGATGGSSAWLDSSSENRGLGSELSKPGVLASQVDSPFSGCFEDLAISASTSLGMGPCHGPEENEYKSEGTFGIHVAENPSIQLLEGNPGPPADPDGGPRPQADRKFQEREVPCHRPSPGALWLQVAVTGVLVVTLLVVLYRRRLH
UniProt Q8N884: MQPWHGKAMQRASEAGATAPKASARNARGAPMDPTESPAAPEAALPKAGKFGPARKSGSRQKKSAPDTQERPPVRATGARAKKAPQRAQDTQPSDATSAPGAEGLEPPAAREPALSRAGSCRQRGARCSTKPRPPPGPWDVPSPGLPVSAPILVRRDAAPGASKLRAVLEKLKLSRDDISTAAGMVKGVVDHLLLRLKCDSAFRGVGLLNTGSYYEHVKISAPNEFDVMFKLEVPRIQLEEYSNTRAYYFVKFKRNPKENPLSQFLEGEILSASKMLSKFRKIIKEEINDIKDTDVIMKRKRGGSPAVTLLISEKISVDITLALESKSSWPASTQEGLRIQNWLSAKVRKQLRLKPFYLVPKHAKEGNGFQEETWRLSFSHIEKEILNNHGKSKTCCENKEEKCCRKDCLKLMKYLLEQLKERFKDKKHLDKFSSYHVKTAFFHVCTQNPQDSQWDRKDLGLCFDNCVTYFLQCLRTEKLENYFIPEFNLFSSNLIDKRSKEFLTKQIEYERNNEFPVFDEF

Key:
[1] = molecular target: T1, Flag-tagged dual serine/threonine and tyrosine protein kinase (DSTYK) (human) (UniProt Q6XUX3); experiment: co-IP; STING-non-expressing HEK293T cells transfected with Flag-tag and HA-tag plasmids (5 ug each) for 24 h; Triton X-100 lysis buffer; IP with anti-Flag, IB with anti-HA and anti-Flag
T1 sequence: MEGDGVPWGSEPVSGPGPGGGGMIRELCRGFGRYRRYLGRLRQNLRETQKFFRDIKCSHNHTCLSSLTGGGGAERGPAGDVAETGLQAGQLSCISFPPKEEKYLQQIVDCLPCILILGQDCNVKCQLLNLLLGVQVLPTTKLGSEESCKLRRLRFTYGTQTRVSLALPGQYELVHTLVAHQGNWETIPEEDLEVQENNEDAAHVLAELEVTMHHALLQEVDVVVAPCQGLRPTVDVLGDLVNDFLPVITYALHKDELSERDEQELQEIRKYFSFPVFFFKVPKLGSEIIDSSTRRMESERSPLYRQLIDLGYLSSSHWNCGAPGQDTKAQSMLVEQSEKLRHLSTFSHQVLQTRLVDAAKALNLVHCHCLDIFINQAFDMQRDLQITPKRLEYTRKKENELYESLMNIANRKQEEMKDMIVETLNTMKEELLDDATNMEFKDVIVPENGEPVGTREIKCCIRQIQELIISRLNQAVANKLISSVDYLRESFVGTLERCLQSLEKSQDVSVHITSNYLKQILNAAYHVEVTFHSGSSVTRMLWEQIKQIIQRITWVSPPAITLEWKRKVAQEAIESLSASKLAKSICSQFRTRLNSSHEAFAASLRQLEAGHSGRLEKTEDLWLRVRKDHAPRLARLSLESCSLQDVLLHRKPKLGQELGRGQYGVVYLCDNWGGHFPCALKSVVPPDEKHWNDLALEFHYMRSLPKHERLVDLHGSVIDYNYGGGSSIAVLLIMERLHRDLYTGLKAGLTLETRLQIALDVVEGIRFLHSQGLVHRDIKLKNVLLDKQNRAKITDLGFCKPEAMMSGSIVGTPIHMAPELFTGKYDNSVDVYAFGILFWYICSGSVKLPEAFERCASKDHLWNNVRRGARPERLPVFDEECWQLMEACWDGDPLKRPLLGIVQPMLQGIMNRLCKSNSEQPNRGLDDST

[2] = molecular target: T2, Endogenous DSTYK (human (endogenous in HeLa)) (UniProt Q6XUX3); experiment: co-IP; endogenous proteins; HeLa cells stimulated with pDNA (1 ug/mL) for 18 and 24 h; IP with anti-DSTYK, IB with anti-DSTYK and anti-STING
T2 sequence: T1 sequence

[3] = molecular target: T3, HA-tagged dual serine/threonine and tyrosine protein kinase (DSTYK) (human) (UniProt Q6XUX3); experiment: co-IP; HEK293T cells transfected with the indicated plasmids (5 ug each) for 24 h; Triton X-100 lysis buffer; IP with anti-HA, IB with anti-HA and anti-Flag
T3 sequence: T1 sequence

[4] = molecular target: T4, HA-tagged DSTYK-D777A (kinase-dead mutant) (human) (UniProt Q6XUX3); experiment: as above
T4 sequence: T1 sequence with D777A

[5] = molecular target: T5, HA-tagged DSTYK-K681A (kinase-dead mutant) (human) (UniProt Q6XUX3); experiment: as above
T5 sequence: T1 sequence with K681A

[6] = molecular target: Flag-tagged stimulator of interferon genes (STING) (human) (UniProt Q86WV6); experiment: co-IP; STING-non-expressing HEK293T cells transfected with Flag-tag and HA-tag plasmids (5 ug each) for 24 h; Triton X-100 lysis buffer; IP with anti-Flag, IB with anti-HA and anti-Flag

Molecule: HA-tagged VISA (from UniProt Q7Z434 1-540)
binding [1]: no binding

Molecule: Endogenous STING (from UniProt Q86WV6 1-379)
binding [2]: binds

B1: HA-tagged TANK-binding kinase 1 (TBK1) (enzyme, UniProt Q9UHD2 1-729)
chain: MQSTSNHLWLLSDILGQGATANVFRGRHKKTGDLFAIKVFNNISFLRPVDVQMREFEVLKKLNHKNIVKLFAIEEETTTRHKVLIMEFCPCGSLYTVLEEPSNAYGLPESEFLIVLRDVVGGMNHLRENGIVHRDIKPGNIMRVIGEDGQSVYKLTDFGAARELEDDEQFVSLYGTEEYLHPDMYERAVLRKDHQKKYGATVDLWSIGVTFYHAATGSLPFRPFEGPRRNKEVMYKIITGKPSGAISGVQKAENGPIDWSGDMPVSCSLSRGLQVLLTPVLANILEADQEKCWGFDQFFAETSDILHRMVIHVFSLQQMTAHKIYIHSYNTATIFHELVYKQTKIISSNQELIYEGRRLVLEPGRLAQHFPKTTEENPIFVVSREPLNTIGLIYEKISLPKVHPRYDLDGDASMAKAITGVVCYACRIASTLLLYQELMRKGIRWLIELIKDDYNETVHKKTEVVITLDFCIRNIEKTVKVYEKLMKINLEAAELGEISDIHTKLLRLSSSQGTIETSLQDIDSRLSPGGSLADAWAHQEGTHPKDRNVEKLQVLLNCMTEIYYQFKKDKAERRLAYNEEQIHKFDKQKLYYHATKAMTHFTDECVKKYEAFLNKSEEWIRKMLHLRKQLLSLTNQCFDIEEEVSKYQEYTNELQETLPQKMFTASSGIKHTMTPIYPSSNTLVEMTLGMKKLKEEMEGVVKELAENNHILERFGSLTMDGGLRNVDCL
binding [1]: no binding

The remaining lines, values ahead:

binding [3]: binds | binding [4]: binds | binding [5]: binds
Molecule: Flag-tagged stimulator of interferon genes (STING) (from UniProt Q86WV6 1-379)

binding [1]: no binding
Molecule: HA-tagged cyclic GMP-AMP synthase (cGAS) (from UniProt Q8N884 1-522) (enzyme)

binding [6]: binds
B2: HA-tagged dual serine/threonine and tyrosine protein kinase (DSTYK) (enzyme, UniProt Q6XUX3 1-929)
chain: T1 sequence

binding [1]: no binding
B3: HA-tagged RIG-I (protein, UniProt O95786 1-925)
chain: MTTEQRRSLQAFQDYIRKTLDPTYILSYMAPWFREEEVQYIQAEKNNKGPMEAATLFLKFLLELQEEGWFRGFLDALDHAGYSGLYEAIESWDFKKIEKLEEYRLLLKRLQPEFKTRIIPTDIISDLSECLINQECEEILQICSTKGMMAGAEKLVECLLRSDKENWPKTLKLALEKERNKFSELWIVEKGIKDVETEDLEDKMETSDIQIFYQEDPECQNLSENSCPPSEVSDTNLYSPFKPRNYQLELALPAMKGKNTIICAPTGCGKTFVSLLICEHHLKKFPQGQKGKVVFFANQIPVYEQQKSVFSKYFERHGYRVTGISGATAENVPVEQIVENNDIIILTPQILVNNLKKGTIPSLSIFTLMIFDECHNTSKQHPYNMIMFNYLDQKLGGSSGPLPQVIGLTASVGVGDAKNTDEALDYICKLCASLDASVIATVKHNLEELEQVVYKPQKFFRKVESRISDKFKYIIAQLMRDTESLAKRICKDLENLSQIQNREFGTQKYEQWIVTVQKACMVFQMPDKDEESRICKALFLYTSHLRKYNDALIISEHARMKDALDYLKDFFSNVRAAGFDEIEQDLTQRFEEKLQELESVSRDPSNENPKLEDLCFILQEEYHLNPETITILFVKTRALVDALKNWIEGNPKLSFLKPGILTGRGKTNQNTGMTLPAQKCILDAFKASGDHNILIATSVADEGIDIAQCNLVILYEYVGNVIKMIQTRGRGRARGSKCFLLTSNAGVIEKEQINMYKEKMMNDSILRLQTWDEAVFREKILHIQTHEKFIRDSQEKPKPVPDKENKKLLCRKCKALACYTADVRVIEECHYTVLGDAFKECFVSRPHPKPKQFSSFEKRAKIFCARQNCSHDWGIHVKYKTFEIPVIKIESFVVEDIATGVQTLYSKWKDFHFEKIPFDPAEMSK
